# Reference: PubChem BioAssay AID488969 (Vanderbilt High Throughput Screening Facility, 2010)
# Whole data set: some 110,000 compounds, median “z-score” near -0.1, cut for the highest 2% near 2. The list shows a part of the results.
# Target: Metabotropic glutamate receptor 8 (Rattus norvegicus) (UniProt P70579)
# Assay: rat mGluR8 modulators via GIRK flux, primary screen, cell-based, thallium flux, HTS (AID 488969)
# Settings: HEK293 rat mGluR8, GIRK (G protein-gated inwardly rectifying potassium channel) thallium flux, FluoZin2; at 10 µM; stronger effect = higher value; submaximal glutamate (EC20) added with thallium
# Chain of UniProt P70579 (P70579 whole entry, looked up): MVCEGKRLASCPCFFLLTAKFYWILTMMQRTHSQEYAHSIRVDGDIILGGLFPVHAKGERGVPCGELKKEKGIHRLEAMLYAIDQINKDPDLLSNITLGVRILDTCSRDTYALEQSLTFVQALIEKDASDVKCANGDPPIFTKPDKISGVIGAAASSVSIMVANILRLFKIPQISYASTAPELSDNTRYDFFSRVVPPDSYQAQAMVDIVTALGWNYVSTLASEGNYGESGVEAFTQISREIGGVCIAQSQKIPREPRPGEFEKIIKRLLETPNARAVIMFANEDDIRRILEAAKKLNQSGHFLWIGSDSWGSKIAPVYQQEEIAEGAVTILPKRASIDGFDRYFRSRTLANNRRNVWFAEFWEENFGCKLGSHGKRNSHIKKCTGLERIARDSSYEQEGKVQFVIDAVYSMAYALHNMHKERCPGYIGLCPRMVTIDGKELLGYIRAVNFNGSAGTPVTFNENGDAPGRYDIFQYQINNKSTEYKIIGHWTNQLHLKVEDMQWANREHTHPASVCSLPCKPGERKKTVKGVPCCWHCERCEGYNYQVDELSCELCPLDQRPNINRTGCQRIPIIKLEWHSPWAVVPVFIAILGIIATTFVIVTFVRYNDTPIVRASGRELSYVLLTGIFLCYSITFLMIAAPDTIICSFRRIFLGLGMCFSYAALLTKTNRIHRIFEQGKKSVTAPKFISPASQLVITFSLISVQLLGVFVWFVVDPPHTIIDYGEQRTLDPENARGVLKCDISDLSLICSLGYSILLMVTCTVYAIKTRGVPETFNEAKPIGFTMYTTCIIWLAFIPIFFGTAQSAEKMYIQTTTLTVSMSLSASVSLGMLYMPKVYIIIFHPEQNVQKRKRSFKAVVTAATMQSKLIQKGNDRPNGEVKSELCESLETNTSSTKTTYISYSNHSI
row,Compound,z-score
1,CC(Oc1ccccc1)C(=O)NC1CCN(Cc2ccccc2)CC1 (stereo not given),-2.68
2,COc1cc(Cl)c(S(=O)(=O)NCCN2CCOCC2)cc1Cl,0.7
3,O=C(Nc1ccc(F)cc1)Nc1ccc(N2CCCC2)c(S(=O)(=O)Nc2ccccc2Cl)c1,-0.191
4,COc1ccccc1Nc1nnc(SCC(=O)Nc2cc(C)on2)s1,-0.352
5,Cc1noc(C)c1CSc1ccccc1C(=O)Nc1nccs1,0.618
6,CCn1c(CCNC(=O)c2ccccc2Cl)n[nH]c1=S,-0.0402
7,CCSc1ccccc1C(=O)N1CCCC1,-0.309
8,COC(=O)C1(Cc2ccccc2)NC(c2ccccc2C)C2C(=O)N(c3ccc4c(c3)OCO4)C(=O)C21 (stereo not given),0.42
9,CCCCc1n[nH]c2c1/C(=N/O)CC(c1ccccc1)C2 (stereo not given),0.131
10,C=CCN(C)CCCNC(=O)/C=N/O,-0.0821
11,COC(=O)Cc1c(C)c2cc(Cl)c(OC(=O)c3ccco3)cc2oc1=O,0.852
12,CCn1c(C)c2c(C)nnc(C)c2c1C,0.319
13,COCCNC(=O)Cn1cnc2sc(C)c(S(=O)(=O)N3CCC(C)CC3)c2c1=O,0.33
14,O=C(/C=C/c1ccccc1)Nc1nnc(SCC(=O)c2ccc3ccccc3c2)s1,-0.0885
15,Nc1nc(SCCN2C(=O)c3ccccc3C2=O)n[nH]1,-0.241
16,N#C/C(=C\c1cn(CCOc2ccccc2)c2ccccc12)C(=O)NCc1cccs1,-0.283
17,O=C(Nc1ccc(S(=O)(=O)N2CCOCC2)cc1)c1ccc(Cl)s1,-0.204
18,O=C1N=C(N2CCc3ccccc3C2)S/C1=C\c1cccc(O)c1,-0.567
19,Cc1nc(C)c(C(=O)Nc2ccccc2)s1,0.738
20,Cc1cccc(C(O)(C(=O)NNc2ccc3ccccc3n2)c2cccc(C)c2)c1,0.0221
21,CCCC(=O)N1c2ccccc2C(N(C(C)=O)c2ccccc2)CC1C (stereo not given),-0.945
22,N#Cc1c(N2CCCCC2)nc(N)c2c(N)nc3c(c12)CC(c1ccccc1)O3 (stereo not given),-0.197
23,CCOC(=O)C1CCN(S(=O)(=O)c2ccc(C(C)=O)cc2)CC1,-0.000373
24,Cn1ncc(N=Cc2ccc([N+](=O)[O-])cc2)c1C(=O)N1CCOCC1,0.282
25,CCCCOc1ccc(NC2=NC3(CCCC3)N=C(N)N2)cc1,0.944
26,CCCn1c(NCc2ccc(N(C)C)cc2)nc2ccccc21,0.4
27,N#Cc1c(NC(NC(=O)c2ccco2)C(=O)c2ccccc2)sc2c1CCCC2 (stereo not given),-0.148
28,CC1(C)CC(=O)C2=C(C1)N(N1CCOCC1)C(N)=C(C#N)C2c1cccs1 (stereo not given),0.368

row,Compound,z-score
1,COc1ccc(-c2csc(N3CCN(C(=O)c4ccccc4)CC3)n2)cc1,0.126
2,CC(C)N(C)NC(=S)Nc1ccccc1,-0.0718
3,CS(=O)(=O)C1=NSC2=NC(=O)/C(=C\c3cccn3-c3ccc(Cl)cc3)C(=N)N21,-0.377
4,O=C(Cn1c(=O)sc2ccccc21)OC(CCl)CCl,-0.0215
5,CCCC(=O)Nc1ccc(C(=O)Nc2nc(CC(=O)OCC)cs2)cc1,-0.437
6,CC1(C(=O)N/N=C/c2ccc([N+](=O)[O-])o2)CC1(Br)Br (stereo not given),-0.0735
7,CCOC(=O)N1CCN(S(=O)(=O)c2ccc(OC)c(Cl)c2Cl)CC1,-0.379
8,COc1ccc(S(=O)(=O)n2oc(=O)cc2-c2ccccc2)cc1,-0.367
9,Cc1cccc(N2CCN(c3nc4ccccc4n4cnnc34)CC2)c1C,-0.0675
10,O=S(=O)(c1cccs1)n1nnc2ccccc21,0.347
11,Cc1nc(NC(=O)C23CCC(C)(C(=O)O2)C3(C)C)sc1C (stereo not given),0.276
12,COCC(O)CSc1nc(C)[nH]c1[N+](=O)[O-] (stereo not given),-0.437
13,Cc1cc(OC(=O)c2cc(Cl)nc3ccccc23)ccc1Cl,-0.0067
14,CCOc1ccc(-c2cc(CCCC(=O)NCCc3ccccc3)no2)cc1,0.0401
15,O=[N+]([O-])c1ccc(C2CNC(c3ccccc3)O2)cc1 (stereo not given),0.872
16,Cc1nc(SCc2ccccc2C)n[nH]1,0.561
17,CCCNC(=O)C(Cc1ccccc1)NS(=O)(=O)c1ccc2c(c1)CCC(=O)N2 (stereo not given),0.179
18,Cc1ccc(N2CC3=C(C2=O)C(c2ccccc2)NC(=O)N3C)cc1 (stereo not given),-0.193
19,COc1ccc(-c2nc(CS(=O)CC(=O)NCc3ccco3)c(C)o2)cc1 (stereo not given),0.179
20,CCOc1ccc(NC(=O)N2CCN(c3nc4ccccc4s3)CC2)cc1,-0.168
21,Cc1c(NC(=O)CC2CC(C)OC2=O)c(=O)n(-c2ccccc2)n1C (stereo not given),0.578
22,COc1ccc(Nc2cccc(Cl)c2)c(C(=O)O)c1,-0.43
23,COc1ccccc1NC(=O)N1CCCC1C(=O)NC1CCCCC1 (stereo not given),0.0901
24,Cc1ccc(-n2c(SCC(=O)Nc3ccc4c(c3)OCO4)nnc2-c2ccoc2C)cc1,-0.214
25,O=c1cc2c(nn1Cc1ccccc1Cl)-c1ccccc1CC2,0.215
26,CCN(CCC#N)c1ccc(/C=N/Nc2nc(C)cc(=O)[nH]2)c(C)c1,-0.498
27,O=C(CCCOc1ccc(Cl)cc1Cl)N/N=C\C1CCCCC1,-0.118
